Values joined by “and” are separate entries in the source; they are usually repeats but may differ in a detail not shown here. Equal entries are not always repeated. Inconclusive results, whose numbers are uncertain, are shown with a selection of clear calls. Where the call is inconclusive, the potency comes from a doubtful curve fit. Active and inactive are the calls of the source. The call rests on the fitted dose curve; in most records, active means well fitted inhibition curve with a large enough effect; inconclusive means small, poorly fitted or top-dose-only effect, or effect the other way; inactive means flat fitted curve, though single readings scatter.
experiment: Quantitative high throughput screen for delayed death inhibitors of the malarial parasite plastid, 48 hour incubation (AID 488752); settings: Plasmodium falciparum growth; series mostly up to 28.7 µM; further: nearly all actives have a fitted effect of over 65% in size
Text: NIH Molecular Libraries Probe Production Network [MLPCN]
NIH Chemical Genomics Center [NCGC]
Assay Provider: David Fidock and Eric Ekland, Columbia University
The goal of this screen is to discover new antimalarial compounds that act by inhibiting the development of the apicoplast in the malarial parasite Plasmodium falciparum. The biochemical processes that make this organelle essential for erythrocytic stage parasites are not well understood. However, antibiotics, such as azithromycin and tetracycline, which target the apicoplast translational machinery, have a potent antimalarial effect.
We have developed a cell-based assay that measures parasite growth based on the expression of an integrated copy of a firefly luciferase reporter. To detect small molecules that cause this 'delayed death' phenotype, erythrocytes infected with the luciferase-expressing parasites were incubated with compounds for either one or two generations, corresponding to 48 and 96 hours, respectively. Compounds that inhibit parasite growth in the second generation, but not the first, should be enriched in antimalarials that target the apicoplast. Growth inhibition is detected by a decrease in luciferase activity
Four microliters of culture medium (RPMI 1640 with 0.5% w/v Albumax (GIBCO), 24 mM sodium bicarbonate and 10 ug/mL gentamycin) were dispensed by a Multi-drop Combi into white solid 1536-well plates (Grenier) and 23 nL compound was added by a pin tool. Four microliters of infected erythrocytes (2% hematocrit, 0.1% parasitemia final concentration) in culture medium were dispensed and the plates incubated for 48 hours at 37 C in 5% CO2. Two microliters of luciferase detection reagent was added and luminescence was detected by a ViewLux (PerkinElmer) reader
Potency means the concentration at half of the fitted maximal effect; tags describe the fitted curve by direction and shape.

| Structure (SMILES) | Potency |
| --- | --- |
| CP(=O)(O)C1=CCNCC1 | inactive |
| O=C1C=CC(=O)C=C1 | inactive |
| C=CCN1C[C@@H](C)N([C@H](c2ccc(C(=O)N(CC)CC)cc2)c2cccc(OC)c2)C[C@@H]1C | active: 5.22 µM |
| NC(=NCCC[C@H](N)C(=O)O)N[N+](=O)[O-] | inactive |
| CCCC[N+]1(C)C2CC(OC(=O)C(CO)c3ccccc3)CC1C1OC12 (stereo not given) | inactive |
| CCS(=O)(=O)Nc1cccc(C(=C2CCCCC2)c2cnc[nH]2)c1 | inconclusive: 11.7 µM [inhibitor, partial curve] |
| Oc1ccccc1O | inconclusive: 13.1 µM [inhibitor, single point] |
| CCCN(CCC)[C@@H]1CCc2cccc(O)c2C1 | inconclusive: 10.4 µM [inhibitor, single point] |
| Nc1ncnc2c1ncn2[C@@H]1O[C@H](COP(=O)(O)CP(=O)(O)OP(=O)(O)O)[C@H](O)[C@H]1O | inactive |
| N#CC(=Cc1ccc(O)c(O)c1)C(N)=S | inactive |
| Brc1c(NC2=NCCN2)ccc2nccnc12 | inconclusive: 1.85 µM [activator, single point] |
| C[C@]12Cc3cn4c(nc3C=C1CCC1C2CC[C@@]2(C)[C@H]1CC[C@@]2(O)C#N)nc1ccccc14 (stereo not given in full) | active: 3.7 µM |
| C[N+]1(C)C2CCC1CC(OC(=O)c1c[nH]c3ccccc13)C2 (stereo not given) | inconclusive: 10.4 µM [inhibitor, single point] |
| COC(=O)c1cc2c(cn1)[nH]c1ccccc12 | inconclusive: 16.5 µM [activator, single point] |
| NC(N)=NC(=O)c1nc(Cl)c(N)nc1N | inconclusive: 9.28 µM [inhibitor, single point] |
| CCN(CC)C(=O)N[C@@H]1C[C@@H]2c3cccc4[nH]cc(c34)C[C@H]2N(C)C1 | inconclusive: 2.33 µM [inhibitor, partial curve] |
| O=P(O)(O)C(Cl)(Cl)P(=O)(O)O | inactive |
| COc1ccc(-n2nc(C(F)(F)F)cc2-c2ccc(Cl)cc2)cc1 | inconclusive: 18.5 µM [inhibitor, single point] |
| C[C@@H]1O[C@@H](O[C@H]2C[C@@H](O)[C@]3(CO)[C@H]4[C@H](O)C[C@]5(C)[C@@H]([C@@H]6COC(=O)C6)CC[C@]5(O)[C@@H]4CC[C@]3(O)C2)[C@H](O)[C@H](O)[C@H]1O | inactive |
| C=CCN1CC[C@]23c4c5ccc(O)c4O[C@H]2/C(=N/NC(=O)c2ccccc2)CC[C@@]3(O)[C@H]1C5 | inconclusive: 11.7 µM [inhibitor, single point] |

| Structure (SMILES) | Potency |
| --- | --- |
| NCCc1c[nH]c2ccc(C(N)=O)cc12 | inactive |
| CCCN(CCC)C1CCc2cccc(O)c2C1 (stereo not given) | inactive |
| CCCCc1ccc(C(=O)O)nc1 | inactive |
| Cc1nccc2c1[nH]c1ccccc12 | inactive |
| CNCCc1ccc(O)c(O)c1 | inactive |
| CCCN1C[C@H](CSC)C[C@@H]2c3cccc4[nH]cc(c34)C[C@H]21 | inconclusive: 18.5 µM [inhibitor, single point] |
| CN1CCN(c2ccc3ccccc3n2)CC1 | inactive |
| O=C(O)c1cc[c]([Hg][Cl])cc1 | active: 4.15 µM |
| NCCc1c[nH]c2ccc(O)cc12 | inactive |
| CCCN1CCc2cc(O)cc3c2C1Cc1ccc(O)c(O)c1-3 (stereo not given) | active: 8.28 µM |
| Oc1ccc2c3c1O[C@H]1c4[nH]c5ccccc5c4C[C@@]4(O)C(C2)N(CC2CC2)CCC314 (stereo not given in full) | inconclusive: 18.5 µM [inhibitor, single point] |
| NC(Cc1ccc(N(CCCl)CCCl)cc1)C(=O)O (stereo not given) | active: 8.28 µM |
| C=CCN1CCC2(C)c3cc(O)ccc3CC1C2C (stereo not given) | inactive |
| CCn1cnc2c(Nc3cccc(Cl)c3)nc(N[C@@H]3CCCC[C@@H]3N)nc21 | active: 5.86 µM |
| COc1ccc2c(c1O)-c1cccc3c1C(C2)N(C)CC3 (stereo not given) | inconclusive: 18.5 µM [inhibitor, single point] |
| N[C@@]1(C(=O)O)CC[C@@H](C(=O)O)C1 | inactive |
| C[N+]1(C)C2CC(OC(=O)C(CO)c3ccccc3)CC1C1OC12 (stereo not given) | inactive and inconclusive: 185 nM [activator, full curve, poor fit] |
| CCCN1CCc2cccc3c2C1Cc1ccc(O)c(O)c1-3 (stereo not given) | active: 1.85 µM |
| CCCCCCCCCCCCCC(=O)O[C@@H]1[C@@H](C)[C@@]2(O)[C@@H](C=C(CO)C[C@@]3(O)C(=O)C(C)=C[C@@H]23)C2C(C)(C)[C@@]21OC(C)=O (stereo not given in full) | inconclusive: 11.7 µM [inhibitor, single point] |
| CN[C@@H](C)[C@H](O)c1ccccc1 | inconclusive: 18.5 µM [inhibitor, single point] |

— PubChem BioAssay (NCATS)
